# Test results from PubChem BioAssay (Tox21).
# “And” between values parts separate entries of the source, which are not always exact repeats. Identical values can stand only once. The shares of active, inactive and inconclusive entries below differ from those in the screen. For some of these results: Potencies beside an inconclusive call are fits to weak or partial responses and may not hold up. Where a structure was tested more than once in an assay, its records may differ in their call. The source made the active and inactive calls. Unless noted, the call rests on the fitted dose curve; in most records, active means well fitted curve in the direction sought with a large enough effect in the repeat runs; inconclusive means weak or mixed curves; inactive means no such curve, though single readings can be large; an effect the other way counts as inactive or inconclusive.
# What was measured:
# [1] = molecular target: Nuclear receptor subfamily 1 group I member 2 (Rattus norvegicus) (UniProt Q9R1A7); assay: Rat pregnane X receptor (rPXR) activation by small molecules, qHTS assay (AID 1346983); conditions: rPXR luciferase reporter cells, One-Glo luminescence, 24 h; max activation: stronger effect = higher value; further: potency means the concentration at half of the fitted maximal effect; nearly all actives have a fitted effect of over 20% in size
# UniProt Q9R1A7, sequence (Q9R1A7 whole entry, looked up): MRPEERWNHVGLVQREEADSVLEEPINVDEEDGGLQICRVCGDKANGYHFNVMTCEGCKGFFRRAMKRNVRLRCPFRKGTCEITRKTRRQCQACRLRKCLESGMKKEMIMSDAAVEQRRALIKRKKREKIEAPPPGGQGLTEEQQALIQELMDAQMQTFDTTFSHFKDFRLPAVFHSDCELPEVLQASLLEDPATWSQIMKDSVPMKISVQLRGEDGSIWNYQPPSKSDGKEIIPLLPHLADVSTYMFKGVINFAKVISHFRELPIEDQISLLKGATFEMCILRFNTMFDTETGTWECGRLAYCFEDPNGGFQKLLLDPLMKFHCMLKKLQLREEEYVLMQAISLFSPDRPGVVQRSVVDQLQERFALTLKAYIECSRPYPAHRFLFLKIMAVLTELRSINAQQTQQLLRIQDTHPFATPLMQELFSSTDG
# Outline: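 Luminescent readout (One-Glo luciferase, 30 min room temperature) followed 24 hr compound treatment at 37 C of rPXR cells plated 2,000 per well and preincubated 5hr; qHTS format with compounds delivered in DMSO.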
# [2] = molecular target: Nuclear receptor subfamily 1 group I member 2 (Homo sapiens) (UniProt O75469); assay: CYP3A4 induction through human pregnane X receptor (PXR) by small molecules, qHTS assay (AID 1346984); conditions: DPX-2 HepG2 PXR, CYP3A4-luciferin luminescence, 24 h; activation: at 46.1 µM (top of the series) unless noted; further: on the % scale 0 is the no-effect control and ±100 the full control effect; nearly all actives have a fitted effect of over 40% in size
# Outline: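 Steps: seed DPX-2 cells, 5 hr at 37C; pin-transfer compounds; 24 hr at 37C; add Luciferin-IPA (3uM final), 3 hr at 37C; add One-Glo, 30 min RT; read luminescence.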
# [3] = molecular target: Acetylcholinesterase (Homo sapiens) (UniProt P22303); assay: Acetylcholinesterase (AChE) small molecule antagonists: enzyme-based qHTS assay with human liver microsomes (AID 1347399; calls by dose curve; further: potency means the concentration at half of the fitted maximal effect; nearly all actives have a fitted effect of over 60% in size); conditions: Potency: qHTS inhibition
# UniProt P22303, sequence (P22303 whole entry, looked up): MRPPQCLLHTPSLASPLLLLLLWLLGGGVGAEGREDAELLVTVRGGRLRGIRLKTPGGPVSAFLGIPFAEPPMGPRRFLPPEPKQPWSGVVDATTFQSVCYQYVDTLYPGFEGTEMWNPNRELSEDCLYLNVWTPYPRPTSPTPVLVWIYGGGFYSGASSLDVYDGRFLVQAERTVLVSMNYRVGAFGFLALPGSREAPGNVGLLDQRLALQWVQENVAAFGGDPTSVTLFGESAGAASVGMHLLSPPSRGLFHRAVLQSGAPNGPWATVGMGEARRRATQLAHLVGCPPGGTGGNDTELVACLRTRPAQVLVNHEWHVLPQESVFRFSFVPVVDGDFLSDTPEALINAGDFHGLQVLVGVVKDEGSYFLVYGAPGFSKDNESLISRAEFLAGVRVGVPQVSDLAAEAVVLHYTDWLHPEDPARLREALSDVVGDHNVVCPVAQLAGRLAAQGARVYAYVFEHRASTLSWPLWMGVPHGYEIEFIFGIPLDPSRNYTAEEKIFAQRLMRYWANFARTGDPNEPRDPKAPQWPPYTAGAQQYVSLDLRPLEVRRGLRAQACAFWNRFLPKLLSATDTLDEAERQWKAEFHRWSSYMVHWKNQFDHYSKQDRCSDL
# Outline: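 Recombinant human AChE (50 mU/mL in the enzyme mix) and human liver microsomes (0.25 mg/mL final) were preincubated with compound and NADPH (0.25 mg/mL final) for 30 min at 37 C. Acetylthiocholine/DTNB was then added; thiocholine was read colorimetrically after 10 min at room temperature.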
# [4] = Caspase-3/7 induction in HepG2 cells by small molecules, qHTS cell viability counter screen (AID 1346981); further: nearly all actives have a fitted effect of over 30% in size; further: potency means the concentration at half of the fitted maximal effect
# Outline: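 Steps: seed 2,000 HepG2 cells per well; incubate 5 hr at 37 C; pin-add compounds in DMSO; incubate 16 hr; add CellTiter-Fluor; after 1 hr at 37 C and 5% CO2, read fluorescence.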
# [5] = molecular target: Cytochrome P450 2D6 (Homo sapiens) (UniProt P10635); assay: Cytochrome P450 Family 2 Subfamily D Member 6 (CYP2D6) small molecule antagonists: luciferase reporter qHTS assay (AID 1671196); further: nearly all actives have a fitted effect of over 50% in size; further: potency means the concentration at half of the fitted maximal effect
# UniProt P10635, sequence (P10635 whole entry, looked up): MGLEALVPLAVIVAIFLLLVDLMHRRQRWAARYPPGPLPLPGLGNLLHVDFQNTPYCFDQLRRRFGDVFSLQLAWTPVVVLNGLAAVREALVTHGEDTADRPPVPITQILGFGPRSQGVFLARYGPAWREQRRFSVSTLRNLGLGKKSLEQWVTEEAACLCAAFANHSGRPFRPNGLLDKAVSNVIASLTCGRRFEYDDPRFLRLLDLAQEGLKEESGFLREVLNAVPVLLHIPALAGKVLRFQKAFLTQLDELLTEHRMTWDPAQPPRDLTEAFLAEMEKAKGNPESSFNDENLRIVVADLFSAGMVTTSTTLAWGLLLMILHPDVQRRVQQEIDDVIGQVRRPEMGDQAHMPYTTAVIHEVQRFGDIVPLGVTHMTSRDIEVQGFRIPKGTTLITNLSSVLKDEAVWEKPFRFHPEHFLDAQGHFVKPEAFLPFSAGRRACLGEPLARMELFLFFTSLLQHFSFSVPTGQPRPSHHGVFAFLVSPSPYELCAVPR
# Outline: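 P450-Glo format: CYP2D6 converts a proluciferin substrate to luciferin in an NADPH-driven reaction lasting 1 h at room temperature. Light output, proportional to CYP2D6 activity, reflects interference by test chemicals.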
# [6] = molecular target: Acetylcholinesterase (Homo sapiens) (UniProt P22303); assay: Acetylcholinesterase (AChE) small molecule antagonists: fluorescence cell-based qHTS assay (AID 1347398; calls by dose curve; further: potency means the concentration at half of the fitted maximal effect; nearly all actives have a fitted effect of over 50% in size); conditions: Potency: AChE activity
# Outline: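 Fluorimetric cell-based assay: intact SH-SY5Y cells, 30 min compound preincubation at 37 C, acetylthiocholine substrate with thiol probe Thiolite Green, 40 min RT development, fluorescence 490/520 nm.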
# [7] = molecular target: Acetylcholinesterase (Homo sapiens) (UniProt P22303); assay: Acetylcholinesterase (AChE) small molecule antagonists: colormetric cell-based qHTS assay (AID 1347395; calls by dose curve; further: potency means the concentration at half of the fitted maximal effect; nearly all actives have a fitted effect of over 30% in size)
# Outline: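 In this cell-based qHTS, attached SH-SY5Y cells were treated with test chemicals for 30 min, after which acetylthiocholine hydrolysis was followed by DTNB colour development over 90 min at 37 C.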
# [8] = molecular target: Acetylcholinesterase (Homo sapiens) (UniProt P22303); assay: Acetylcholinesterase (AChE) small molecule antagonists: enzyme-based qHTS assay (AID 1347397; calls by dose curve; further: potency means the concentration at half of the fitted maximal effect; nearly all actives have a fitted effect of over 55% in size); conditions: Potency: AChE enzyme activity inhibition
# Outline: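 Absorbance-based detection of thiocholine with DTNB served as the read-out. Recombinant human AChE was exposed to compound for 30 min at RT before a 10 min RT incubation with acetylthiocholine.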
# Tags describe the fitted curve by direction and shape.
compound,measurement,setting,value
C[C@H]1O[C@@H](O[C@H]2[C@@H](O)C[C@H](O[C@H]3[C@@H](O)C[C@H](O[C@H]4CC[C@@]5(C)[C@H](CC[C@@H]6[C@@H]5CC[C@]5(C)[C@@H](C7=CC(=O)OC7)CC[C@]65O)C4)O[C@@H]3C)O[C@@H]2C)C[C@H](O)[C@@H]1O,Potency,[1],"inconclusive: 14.1 µM [activator, single point]"
same,activation,[2],inconclusive: -27.4% [activator]
O=C1C2CC=CCC2C(=O)N1SC(Cl)(Cl)Cl (stereo not given),Potency,[3],"inconclusive: 69.8 µM [falling, partial curve]"
N#CCCC(Br)(C#N)CBr (stereo not given),Potency,[3],"inconclusive: 63.3 µM [falling, partial curve]"
CN(C)c1ccc(C(=O)c2ccc(N(C)C)cc2)cc1,Potency,[4],"inconclusive: 67.9 µM [cytotoxic, single point] and active: 48.6 µM"
same,Potency,[5],inactive and active: 35.6 µM
Clc1ccc(COC(Cn2ccnc2)c2ccc(Cl)cc2Cl)cc1 (stereo not given),Potency,[4],"inconclusive: 33.5 µM [cytotoxic, single point]"
same,Potency,[6],"inconclusive: 29.6 µM [inhibitor, partial curve]"
CC(=O)[O][Sn]([c]1ccccc1)([c]1ccccc1)[c]1ccccc1,Potency,[4],active: 2.73 µM
same,Potency,[5],active: 0.2 µM
O=P(OCC(Br)CBr)(OCC(Br)CBr)OCC(Br)CBr (stereo not given),Potency,[4],"inconclusive: 69.5 µM [cytotoxic, single point]"
same,Potency,[6],"inconclusive: 45.4 µM [inhibitor, partial curve]"
same,Potency,[5],active: 20.3 µM and active: 26.8 µM
Cc1nnc2n1-c1sc(CCc3ccc(CC(C)C)cc3)cc1C(c1ccccc1Cl)=NC2C (stereo not given),Potency,[4],"inconclusive: 33.5 µM [cytotoxic, single point]"
same,Potency,[5],"inconclusive: 27.5 µM [inhibitor, partial curve]"
O=C1C(Cl)=C(Cl)C(=O)C(Cl)=C1Cl,Potency,[4],inconclusive: 48.6 µM [cytotoxic]
same,Potency,[7],"inconclusive: 63.1 µM [inhibitor, partial curve] and inconclusive: 35.6 µM [inhibitor, partial curve]"
same,Potency,[3],"inconclusive: 79.4 µM [falling, partial curve, poor fit] and inconclusive: 71 µM [falling, partial curve, poor fit]"
same,Potency,[5],active: 31.6 µM and active: 25.2 µM
CCOP(=S)(OCC)SC(CCl)N1C(=O)c2ccccc2C1=O (stereo not given),Potency,[4],inactive
same,Potency,[8],active: 63.3 µM
CCOP(=S)(OCC)OC(Cl)C(Cl)(Cl)Cl (stereo not given),Potency,[4],inactive
same,Potency,[6],active: 31.7 µM
CC(C)(O)c1cnn2c(-c3ccc(F)c(-c4c(F)cccc4C#N)c3)cnc2n1,Potency,[4],"inconclusive: 30.6 µM [cytotoxic, partial curve, poor fit]"
same,Potency,[7],"inconclusive: 89.4 µM [inhibitor, partial curve, poor fit]"
same,Potency,[5],"inconclusive: 25.2 µM [inhibitor, full curve, poor fit]"
CC(C)N1C(=O)N(c2ccccc2)CSC1=NC(C)(C)C,Potency,[4],"inconclusive: 68.6 µM [cytotoxic, single point]"
same,Potency,[5],"inconclusive: 35.6 µM [inhibitor, partial curve]"
Cc1cccc(N)c1N,Potency,[4],"inconclusive: 30.6 µM [cytotoxic, partial curve]"
same,Potency,[6],"inconclusive: 61.2 µM [inhibitor, partial curve]"
CCCN(CCC)c1c([N+](=O)[O-])cc(S(N)(=O)=O)cc1[N+](=O)[O-],Potency,[4],active: 57.7 µM
same,Potency,[7],"inconclusive: 95.3 µM [inhibitor, partial curve, poor fit]"
same,Potency,[5],active: 62.7 µM
Oc1cc(Cl)ccc1Oc1ccc(Cl)cc1Cl,Potency,[4],"inconclusive: 33.5 µM [cytotoxic, single point]"
same,Potency,[5],"inconclusive: 42.1 µM [inhibitor, partial curve]"
Cc1ccc(OP(=O)(Oc2ccc(C)cc2)Oc2ccc(C)cc2)cc1,Potency,[4],"inconclusive: 24.3 µM [cytotoxic, partial curve]"
same,Potency,[5],"inconclusive: 63.2 µM [inhibitor, partial curve, poor fit]"
CN(C)S(=O)(=O)N(SC(F)(Cl)Cl)c1ccccc1,Potency,[4],"inconclusive: 68.6 µM [cytotoxic, single point]"
same,Potency,[8],"inconclusive: 63.3 µM [falling, partial curve]"
same,Potency,[5],inconclusive: 28.3 µM [inhibitor]
